# Measurements as given in article PMC7819943, “Rice protein-binding microarrays: a tool to detect cis-acting elements near promoter regions in rice”.
# This is one part of the list.
# Molecular target: T1, OsWOX13 (Oryza sativa, UniProt Q5QMM3 1-267)
# T1 sequence: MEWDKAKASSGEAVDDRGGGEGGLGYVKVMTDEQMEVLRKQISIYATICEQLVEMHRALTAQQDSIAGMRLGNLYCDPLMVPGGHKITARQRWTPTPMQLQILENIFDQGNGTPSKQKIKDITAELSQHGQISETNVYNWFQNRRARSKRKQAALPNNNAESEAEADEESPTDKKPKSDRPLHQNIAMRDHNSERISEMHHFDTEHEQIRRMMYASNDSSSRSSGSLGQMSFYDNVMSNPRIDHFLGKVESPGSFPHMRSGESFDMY
# Test: protein-binding microarray (RPBM); PBS, 2% BSA, 51.3 ng/ul salmon testes DNA, 50 uM zinc acetate, 200 nM TF, 25 C, 1 h; high values mean tight binding
# Settings: protein: recombinant; tags: N-terminal polyhistidine and DsRed monomer fusion (pET32a); label: CyDye5-dUTP incorporated in the synthesized complementary strand; 3' TTTTT single-stranded linker to array surface; dsDNA, one strand shown
# Procedure, shortened: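 Binding signal is reported as fluorescence intensity per feature (arbitrary units) from an Axon 4000B scanner. Incubation used 200 nM of each Ni–NTA-purified, N-terminally polyhistidine- and DsRed-fused transcription factor from E. coli BL21-CodonPlus on a double-stranded custom Agilent array for 1 h at 25 °C, with 50 µM zinc acetate in the buffer, followed by washing.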
row,Sequence,binding signal
1,CAAATGACAAATTGCCAAGTTTTACTACTAGTGTTTAGATCGGAGTCACCTAGTGCAG,12800 fluorescence intensity (a.u.)
2,CCCTTGACGCTTCATTTCCGTCTTCTCATTTAAACTTTATCGGAGTCACCTAGTGCAG,4050 fluorescence intensity (a.u.)
3,AATATATAATTAATCATTCATTAATGTTTGTGCCGCGATTCGGAGTCACCTAGTGCAG,31500 fluorescence intensity (a.u.)
4,GCAATTAATTAATTCTCCATCGTTGCAAGTTAGCCAATTTCGGAGTCACCTAGTGCAG,38200 fluorescence intensity (a.u.)
5,CCAAACTGAAGCATATGTCAGCCATCAATTGAGTGGCCTCCGGAGTCACCTAGTGCAG,4230 fluorescence intensity (a.u.)
6,GGGGATGGATGGATGGATGGATTAATCTCCCCAAATGGAACGGAGTCACCTAGTGCAG,7060 fluorescence intensity (a.u.)
7,TATTTCGTGGTGTCATTGTGATTGATCCAAGTGCTCTGACCGGAGTCACCTAGTGCAG,8510 fluorescence intensity (a.u.)
8,ATAAAGATGGACTGCTGGAATTGACATTACCTGACATCAGCGGAGTCACCTAGTGCAG,7760 fluorescence intensity (a.u.)
9,TAATAGTTATAATTTAAATGTATATCACTATATGCTGTTACGGAGTCACCTAGTGCAG,4830 fluorescence intensity (a.u.)
10,CAAGATTGTTTGTGTATGAATTTTCTTCTCTCATAGATTACGGAGTCACCTAGTGCAG,9410 fluorescence intensity (a.u.)
11,TGAAATTTATTAATCAATGAACTAAATTACTCCCTCGAGTCGGAGTCACCTAGTGCAG,24500 fluorescence intensity (a.u.)
12,ACGTGATTTGGGTTTTGGCCGCCGCCCAGCTGCAAGTCTGCGGAGTCACCTAGTGCAG,23200 fluorescence intensity (a.u.)
13,ATTTGCCTAGGCTAATTAGTAATTACAGTGCTATGTTCTCCGGAGTCACCTAGTGCAG,7160 fluorescence intensity (a.u.)
14,TCTAGATTTATCTTTAGAATTTAAATCATTTTGGACAAAGCGGAGTCACCTAGTGCAG,3770 fluorescence intensity (a.u.)
15,TGGGATGATTGAGCACCAGTGATTTCGTATCCGGTCAAAACGGAGTCACCTAGTGCAG,25500 fluorescence intensity (a.u.)
16,ATGAGATAAATTGATTGTTAACCATGTATGTCTCTAAGGTCGGAGTCACCTAGTGCAG,56400 fluorescence intensity (a.u.)
17,GACTTCTCAACACATGATTAATTAAGTATTAATTAATTTTCGGAGTCACCTAGTGCAG,6280 fluorescence intensity (a.u.)
18,GCTAATTGGGCCTTCAGGTAGGGGTGGGCGTTCGGTCTGACGGAGTCACCTAGTGCAG,40000 fluorescence intensity (a.u.)
19,TATAATTTATAAATAACTAAAATTTGATATTGAAAATAATCGGAGTCACCTAGTGCAG,4160 fluorescence intensity (a.u.)
20,ATTGACTGCAACAGCTGAGAACTTGAACCCTCAGATCGATCGGAGTCACCTAGTGCAG,6640 fluorescence intensity (a.u.)
21,TGGGTAATTACCGCCGGGATCAGGATCCGACGCCCAGATCCGGAGTCACCTAGTGCAG,16000 fluorescence intensity (a.u.)
22,TGTGTCATGATTGCATGGGATTTAAAATAGGCTAGAATAGCGGAGTCACCTAGTGCAG,12800 fluorescence intensity (a.u.)
23,TTGGATAAGATGAACTTCAATCAATTTGCGGGCAAACCTTCGGAGTCACCTAGTGCAG,9080 fluorescence intensity (a.u.)
24,ATTATTGAATTATTATTGCATTATTATTATTGGATGGTTACGGAGTCACCTAGTGCAG,14800 fluorescence intensity (a.u.)
25,TTAATTAGGTTTAATAGATTCATCTCGCAGTTTACAGGCACGGAGTCACCTAGTGCAG,18500 fluorescence intensity (a.u.)
26,CTTGACTGAATATGAGAAGCTGTAGCTGCAAAGTTCAGAACGGAGTCACCTAGTGCAG,14000 fluorescence intensity (a.u.)
27,TACGCAATTATAATTTATTTTGTTATGAGTCGTTTTATCACGGAGTCACCTAGTGCAG,11900 fluorescence intensity (a.u.)

row,Sequence,binding signal
1,TCAAACAGATTAAATACGAGCCCCTTTACGACATGCGAGCCGGAGTCACCTAGTGCAG,13900 fluorescence intensity (a.u.)
2,GGAATAACAATTAGATTTGGTGCAATGACAATGGTGAGACCGGAGTCACCTAGTGCAG,7260 fluorescence intensity (a.u.)
3,AGTTAAATTTAGCATGTAAGTGCAGAGCCACTGTTTGTGTCGGAGTCACCTAGTGCAG,6520 fluorescence intensity (a.u.)
4,AGGGGATGTGATAATGACACGGATTAACTCAGTATAATGCCGGAGTCACCTAGTGCAG,3350 fluorescence intensity (a.u.)
5,CCTGATTTCAGTGTGGGAACACAGAATAAACACATTAGTCCGGAGTCACCTAGTGCAG,6790 fluorescence intensity (a.u.)
6,TTACCAATTACAATGCAGTTACACTTCAATTATACTATAACGGAGTCACCTAGTGCAG,11800 fluorescence intensity (a.u.)
7,ATAAATTTAGCCTCTTTTGTTTAGTATTGCAACTACCAATCGGAGTCACCTAGTGCAG,3440 fluorescence intensity (a.u.)
8,ATTCTACTATTGATTGATCATGTGTTTTAGTTATCACATCCGGAGTCACCTAGTGCAG,40600 fluorescence intensity (a.u.)
9,TAACAAATGATTTGCTCCTGGTCTTTGCTACTGCAGTGCACGGAGTCACCTAGTGCAG,16500 fluorescence intensity (a.u.)
10,ATTAATTGGTCGTGTATTAGCAAACGATATATATATCGGTCGGAGTCACCTAGTGCAG,50500 fluorescence intensity (a.u.)
11,CTCTAAACATACATTAAACGTGCACCGACGAATGGACATGCGGAGTCACCTAGTGCAG,3950 fluorescence intensity (a.u.)
12,AGAGATCATGGAATTGATTTTCTCTTTGGGCCTGTTTGGCCGGAGTCACCTAGTGCAG,5960 fluorescence intensity (a.u.)
13,CTTTTCAGTCACATCATCTCCAATTTCAACCAAAATCCAACGGAGTCACCTAGTGCAG,3350 fluorescence intensity (a.u.)
14,GCCATATGATTATTTAATCTGATCCGGAGGATTAAACAAGCGGAGTCACCTAGTGCAG,14100 fluorescence intensity (a.u.)
15,TACAGACTAGTATTAATTAGTTACTAAGCAGATTAGAATTCGGAGTCACCTAGTGCAG,7470 fluorescence intensity (a.u.)
16,CTGTCTAAATCATTTGTCTCCGCATCCATCCACTTTTAGGCGGAGTCACCTAGTGCAG,3600 fluorescence intensity (a.u.)
17,TGAGTATATGATTGAATCTGAAATTGTCCCTTATTCTAGGCGGAGTCACCTAGTGCAG,28800 fluorescence intensity (a.u.)
18,CACACACTGATGACTGACCCCGCCACCTTCTCGTAATTGCCGGAGTCACCTAGTGCAG,6630 fluorescence intensity (a.u.)
19,TTACCAGTGGTGATTAATGATTTGTCACTAGGCCTACATGCGGAGTCACCTAGTGCAG,10000 fluorescence intensity (a.u.)
20,ATTTTAGATTGTATTCCTATTTGGACTCTCCTTTCCTTTTCGGAGTCACCTAGTGCAG,11700 fluorescence intensity (a.u.)
21,GTTTATTTTAACAAATTTGGTGGTTTACACTTCAACGCTTCGGAGTCACCTAGTGCAG,4710 fluorescence intensity (a.u.)
22,AATCAATCTAGTCCTTTCTAGATTGGTCTCATTTGTGTTCCGGAGTCACCTAGTGCAG,31300 fluorescence intensity (a.u.)
23,TGAGTCTAATTACGCCATGATTTTGACAATGTGATGCTACCGGAGTCACCTAGTGCAG,22800 fluorescence intensity (a.u.)
24,CTAAATATTTCATTTGTAAATTAATTTCTATTCTATTCAACGGAGTCACCTAGTGCAG,6510 fluorescence intensity (a.u.)
25,CACAATGTGACAAGAGATTGATATTAGAGAGCATCTCCAGCGGAGTCACCTAGTGCAG,7320 fluorescence intensity (a.u.)
26,CAAATTAGTATGCAATCAGTGAATATATCCACGTAATTTGCGGAGTCACCTAGTGCAG,22100 fluorescence intensity (a.u.)
27,TGGCAATCAATCGATCCCCTCTCTCATCCGCTCCGCTCACCGGAGTCACCTAGTGCAG,7460 fluorescence intensity (a.u.)
